Data: PubChem BioAssay AID1671188 (National Center for Advancing Translational Sciences (NCATS), 2021)
“And” between values parts separate entries of the source, which are not always exact repeats. Equal entries are not always repeated. Screen size: about 100,000 compounds; about 250 (0.25%) were called active. This list was built around the results that the source calls inconclusive (neither active nor inactive); the mix of calls is not that of the screen. Calls come from the whole dose curve; as a rule, active = well fitted inhibition curve with a large enough effect; inconclusive = small, poorly fitted or top-dose-only effect; inactive = flat fitted curve, though single readings scatter. Where the call is inconclusive, the potency comes from a doubtful curve fit.

Target: Alanine aminotransferase 2 (Homo sapiens) (UniProt Q8TD30)
UniProt Q8TD30, sequence (Q8TD30 whole entry, looked up): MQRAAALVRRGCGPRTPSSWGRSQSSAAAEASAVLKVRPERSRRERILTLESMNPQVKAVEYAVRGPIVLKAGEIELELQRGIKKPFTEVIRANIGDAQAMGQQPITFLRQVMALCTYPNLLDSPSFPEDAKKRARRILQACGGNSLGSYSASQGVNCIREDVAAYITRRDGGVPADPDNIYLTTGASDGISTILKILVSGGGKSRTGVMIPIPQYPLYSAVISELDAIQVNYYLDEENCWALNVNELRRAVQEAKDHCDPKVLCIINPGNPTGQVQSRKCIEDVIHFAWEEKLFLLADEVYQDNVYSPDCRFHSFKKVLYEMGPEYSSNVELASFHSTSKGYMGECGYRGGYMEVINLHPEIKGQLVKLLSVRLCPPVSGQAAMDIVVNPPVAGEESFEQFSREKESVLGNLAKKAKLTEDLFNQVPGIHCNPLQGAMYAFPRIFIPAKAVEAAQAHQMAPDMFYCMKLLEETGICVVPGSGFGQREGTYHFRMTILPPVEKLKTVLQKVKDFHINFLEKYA
Assay: Primary qHTS assay for inhibitors of Glutamate pyruvate transaminase 2 (GPT2); note: nearly all actives have a fitted effect of over 60% in size
Details: Recombinant GPT2, coupled pyruvate oxidase/HRP Amplex Red fluorescence; activity change, negative = inhibition: at 57.7 µM (top of the series) unless noted; series mostly up to 57.7 µM
Method in brief: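 Recombinant GPT2 (10ng/uL) with 250uM a-KG and 2mM L-alanine, 30 min at room temperature, in HEPES pH 7.5 buffer. Pyruvate detected by pyruvate oxidase/HRP/Amplex Red fluorescence after 30 min in the dark; AOA (50uM) as positive control.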
% is set by controls: 0 for no effect and ±100 for the full control effect; potency is the fitted concentration of half-maximal effect; tags give direction and shape of the fitted curve.

| Compound | activity change, negative = inhibition | Potency | outcome |
| --- | --- | --- | --- |
| CC(=O)O[C@H]1[C@H](O[C@H]2[C@@H]3C=CO[C@@H](O[C@@H]4O[C@H](CO)[C@@H](O)[C@H](O)[C@H]4O)[C@@H]3[C@@]3(CO)O[C@@H]23)O[C@@H](C)[C@H](OC(=O)/C=C/c2ccccc2)[C@H]1OC(=O)/C=C/c1ccccc1 | inactive: 4.65% [at 17.1 µM] |  |  |
| O=C(NC1CCN(c2cc(-c3ccc(F)cc3)[nH]n2)C1)c1ccccc1 (centres undefined) |  | inconclusive: 12.6 µM [inhibitor, partial curve] |  |
| CCN1c2cc(C(=O)Nc3ccc(C)c(F)c3)ccc2C(=O)N2CCCCCC21 (centres undefined) | inactive: 2.65% |  |  |
| COc1ccccc1CC(=O)N1CCCc2ncc(C(=O)Nc3cccc(C(F)(F)F)c3)cc21 |  | inconclusive: 5.62 µM [inhibitor, single point] |  |
| CC(C)N1C(=O)C2(CCCCC2)C1C(=O)N1CCN(C)CC1 (centres undefined) |  | inconclusive: 39.8 µM [inhibitor, single point] |  |
| Cn1cccc1C(=O)N1CCCCC1c1nc(-c2cnccn2)n[nH]1 (centres undefined) |  | inconclusive: 17.8 µM [inhibitor, partial curve, poor fit] |  |
| COc1ccc(CN2CCc3nc(C(=O)Nc4ccccc4)oc3CC2)cc1 | inactive: -14.9% [at 88.5 µM] |  |  |
| COc1cccc(CC(=O)N[C@@H]2CCC[C@@H](C(=O)NCc3cc(C)on3)CC(=O)N(C)C2)c1 |  | inconclusive: 39.8 µM [inhibitor, single point] |  |
| C=C[C@H]1[C@H](O[C@@H]2O[C@H](CO)[C@@H](O)[C@H](O)[C@H]2O)OC=C(C(=O)OC)[C@H]1C[C@@H]1N[C@H](C(=O)O)Cc2c1[nH]c1ccccc21 |  | inconclusive: 11.2 µM [inhibitor, single point] |  |
| COc1ccc(NC(=O)N2CCCC(c3noc(COc4ccccc4)n3)C2)c(C)c1 (centres undefined) |  | inconclusive: 11.2 µM [inhibitor, partial curve, poor fit] |  |
| Cc1cc(C)n2c(C(=O)N[C@@H]3COCC[C@@H]3OCc3ccccc3)nnc2n1 |  |  | inactive [at 11.5 µM] |
| Cc1cccc(S(=O)(=O)N2CCN(C3CCN(Cc4ccccn4)C3=O)CC2)c1 (centres undefined) |  | inconclusive: 35.5 µM [inhibitor, single point] |  |
| CN(C)c1cccc(C(=O)N2CCCC(n3cc(-c4nc(-c5ccccc5)no4)nn3)C2)c1 (centres undefined) |  |  | inactive |
| CCOC(=O)C1=C(C)N=C2SC=C(CC(=O)Nc3cccc(OC)c3)N2C1c1cccc(OC)c1 (centres undefined) |  |  | inactive |
| COc1ccc(CNC(=O)C2CN(C3CCCC3)C(=O)N2)cc1 (centres undefined) |  | inconclusive: 56.2 µM [inhibitor, single point] |  |
| CCc1ccc(NC(=O)c2ccc(CN3C(=O)NC4(CCOCC4)C3=O)cc2)cc1 |  |  | inactive |
| CC(=O)N1CCn2c(nn(-c3ccc([N+](=O)[O-])cc3)c2=O)C1 |  | inconclusive: 7.08 µM [inhibitor, full curve, poor fit] |  |
| Cn1c(=O)c2c(ncn2CCO)n(C)c1=O |  | inconclusive: 3.16 µM [inhibitor, full curve, poor fit] |  |
| O=C1CCCCC(CNC(=O)c2ccccn2)N1 (centres undefined) | inactive: 4.75% |  |  |
| O=C(Cc1ccccc1Cl)N1CCC2(CC1)NC(=O)N(c1cccc(F)c1)N2 |  | inconclusive: 39.8 µM [inhibitor, single point] |  |
| CCCC(=O)N1CCC(N2CC3CC(C2)[C@H]2CCCC(=O)N2C3)CC1 (some centres undefined) |  | inconclusive: 14.1 µM [inhibitor, partial curve] |  |
| Cc1ccc(-n2cc(CN3CCn4nc(C(O)c5nccn5C)cc4C3)cn2)cc1 (centres undefined) |  | inconclusive: 3.16 µM [inhibitor, single point] |  |

| Compound | activity change, negative = inhibition | Potency | outcome |
| --- | --- | --- | --- |
| O=[S+]([O-])(NC1CCN(Cc2ccc(-c3ccsc3)cc2)C1)c1ccccc1 (centres undefined) |  |  | inactive |
| Cc1cccc(N2Cc3c(NCCO)ncnc3N(C)CC2=O)c1 |  | inconclusive: 56.2 µM [inhibitor, single point] |  |
| Cc1ocnc1C(=O)N1CCN(C(=O)C2CCC2)[C@@H]2CS(=O)(=O)C[C@@H]21 |  | inconclusive: 39.8 µM [inhibitor, single point] |  |
| O=C(NC1CCN(Cc2cccc(-c3ccc(F)c(F)c3)c2)CC1)c1ccc(Cl)cc1 |  | inconclusive: 3.16 µM [inhibitor, single point] |  |
| Cc1ccccc1C(=O)N1CCCN(c2cc(-c3ccccc3)[nH]n2)CC1 |  | inconclusive: 39.8 µM [inhibitor, single point] |  |
| C[C@H]1CCCN1C(=O)c1nnc(COc2ccc(C#N)cc2)n1-c1cccnc1 |  |  | inactive [at 88.5 µM] |
| COCC1CN(Cc2ccc(OC)cc2)CC12CCNCC2 (centres undefined) |  | inconclusive: 39.8 µM [inhibitor, single point] |  |
| COc1cc(C(=O)N2CCCN(c3cc(-c4ccc(F)cc4)[nH]n3)CC2)cc(OC)c1OC | inactive: -4.6% |  |  |
| Cc1cccc(-c2cc(C3CCN(S(=O)(=O)c4cccc(C#N)c4)CC3)[nH]n2)c1 |  | inconclusive: 4.47 µM [inhibitor, full curve, poor fit] |  |
| O=C([C@@H]1C[C@H](F)CN1C(=O)NC1CCCC1)N1CCc2ccccc2C1 |  | inconclusive: 39.8 µM [inhibitor, single point] |  |
| COc1ccc(OCC2(C)COc3ccc(C(=O)Nc4ccc(OC)nc4)cc3N2)cc1 (centres undefined) | inactive: -1.56% [at 88.5 µM] |  |  |
| CCCOc1cc(C)c2c(c1C)C[C@H](C(C)C(=O)N1CCN(CCO)CC1)CC2 (some centres undefined) |  | inconclusive: 11.2 µM [inhibitor, single point] |  |
| Cn1c(=O)cc(N2CCCC(N)C2)n(Cc2cc(F)ccc2C#N)c1=O (centres undefined) |  | inconclusive: 7.94 µM [inhibitor, full curve, poor fit] |  |
| CC(C)NCC(O)c1cc(O)cc(O)c1 (centres undefined) |  | inconclusive: 8.91 µM [inhibitor, partial curve, poor fit] |  |
| O=C(NCc1ccc2c(c1)OCO2)C1CCN(c2cn[nH]c(=O)c2)C1 (centres undefined) |  |  | inactive |
| CCn1nccc1C(=O)N1CC(Oc2ccc(-c3nc(-c4ccccc4)no3)cc2)C1 |  |  | inactive |
| O=C(c1ccc(C(F)(F)F)cc1)N1CCC2(CC(c3cccc(C(F)(F)F)c3)=NO2)C1 (centres undefined) |  | inconclusive: 2.51 µM [inhibitor, full curve] |  |
| OCC1CN(c2ccncn2)CC12CCN(Cc1ccncc1F)CC2 (centres undefined) |  | inconclusive: 39.8 µM [inhibitor, single point] |  |
| CC(=O)/C(C)=N/O |  | active: 20 µM |  |
| O=C(c1ccc(N2CC3CC(C2)[C@H]2CCCC(=O)N2C3)nc1)N1CCc2ccccc21 (some centres undefined) |  | inconclusive: 7.08 µM [inhibitor, single point] |  |
| CC(C)N(C)Cc1nnnn1CC(=O)NCC1CCCN(c2ncccn2)C1 (centres undefined) |  | inconclusive: 7.08 µM [inhibitor, single point] |  |
| Cn1ncc2c(C(=O)NCc3ccc(F)cc3)cc(C(C)(C)C)nc21 |  | inconclusive: 8.91 µM [inhibitor, single point] |  |

| Compound | activity change, negative = inhibition | Potency | outcome |
| --- | --- | --- | --- |
| O=C(NC1CCN(c2cc(C(F)(F)F)ncn2)CC1)c1ccccc1 |  | inconclusive: 5.01 µM [inhibitor, single point] |  |
| CC(C)c1ccc(NC(=O)N[C@H]2CO[C@H]3[C@@H]2OC[C@H]3OC(=O)Nc2cccc(C(F)(F)F)c2)cc1 | inactive: -10.3% |  |  |
| Cc1ccc2nc(CO[C@H]3CN(CC4CC4)C[C@H]3F)[nH]c2c1 |  |  | inactive [at 88.5 µM] |
| COc1ccc(C(=O)N2CCC3(CC2)NC(=O)N(c2cccc(Cl)c2)N3)cc1 | inactive: -31.7% |  |  |
| CC(C)(CO)Cc1cc(C(C)(C)C)c(O)c(C(C)(C)C)c1 |  | inconclusive: 31.6 µM [inhibitor, single point] |  |
| O=C(O)CN(CCN(CC(=O)O)CC(=O)O)CCN(CC(=O)O)CC(=O)O |  | inconclusive: 708 nM [inhibitor, full curve, poor fit] and inconclusive: 2 µM [inhibitor, partial curve, poor fit] |  |
| O=C(Cc1c[nH]c2ncc(-c3cccc(CO)c3)cc12)N1CCOCC1 | inactive: -24.8% [at 88.5 µM] |  |  |
| O=C(c1cccc(OC2CN(Cc3ccc(F)cc3Cl)C2)c1)N1CCOCC1 |  | inconclusive: 3.16 µM [inhibitor, partial curve, poor fit] |  |
| O=C(NCCc1noc(-c2ccncc2)n1)c1ccccc1 |  | inconclusive: 11.2 µM [inhibitor, partial curve] |  |
| COC[C@@H]1CN(C(=O)c2ccc3c(c2)OCO3)C[C@H]1c1ccccn1 |  | inconclusive: 35.5 µM [inhibitor, single point] |  |
| CN(C)c1ccc(CN2CCC3(Cc4ccccc4NC3=O)C2)cc1 (centres undefined) | inactive: -4.74% [at 88.5 µM] |  |  |
| Cc1cc(O)c(-c2ccc([C@@H](C)CN(C)C)cc2)c2c1[nH]c(=O)c1sccc12 |  | inconclusive: 39.8 µM [inhibitor, single point] |  |
| O=C(NC1CCN(c2cc(-c3ccc(F)cc3)[nH]n2)C1)c1ccc2c(c1)OCO2 (centres undefined) |  | inconclusive: 25.1 µM [inhibitor, single point] |  |
| NCc1c[nH]c(=S)n1C1CCc2c(F)cc(F)cc2C1 (centres undefined) | inactive: 2.92% |  |  |
| CCCc1ccc(S(=O)(=O)NC2CCN(c3ccc(=O)n(CC4CC4)n3)CC2)cc1 |  | inconclusive: 25.1 µM [inhibitor, partial curve, poor fit] |  |
| C=CCC(=O)N1CCCC1C(=O)Nc1ccc(-c2cccc(OC)c2)cc1 (centres undefined) |  | inconclusive: 3.16 µM [inhibitor, single point] |  |
| COCCNC(=O)[C@@H]1C[C@@H](O)CN1C1CCN(C(=O)COc2ccccc2)CC1 |  | inconclusive: 39.8 µM [inhibitor, single point] |  |
| O=C1O[C@@H]2CN(c3ncccn3)C[C@@H]2N1CCc1ccc(F)cc1 |  | inconclusive: 7.08 µM [inhibitor, single point] |  |
| Cc1ccccc1-c1[nH]nc2ncc(-c3ccnn3C)nc12 | inactive: -9.37% [at 88.5 µM] |  |  |
| COc1cc(CNC(=O)CC2CCOCC2)cc(OC)c1 |  | inconclusive: 31.6 µM [inhibitor, single point] |  |
